# Results as given in the supplement of paper PMC8728848.
# The other results are listed elsewhere or left out.
# B1: GNA (Galanthus nivalis), P30617 (protein)
# chain: MAKASLLILAAIFLGVITPSCLSDNILYSGETLSTGEFLNYGSFVFIMQEDCNLVLYDVDKPIWATNTGGLSRSCFLSMQTDGNLVVYNPSNKPIWASNTGGQNGNYVCILQKDRNVVIYGTDRWATGTHTGLVGIPASPPSEKYPTAGKIKLVTAK
# Key:
# Experiment in all cases: glycan array binding signal (z-score within array); higher = stronger binding
# Settings in all cases: glycan notation: IUPAC condensed, linker removed
# [1] = target: Neu5Ac(a2-3)Gal(b1-4)GlcNAc(b1-6)[Gal(b1-3)]GalNAc
# Summary of the method: (§1)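 Arrays were curated from the Consortium for Functional Glycomics database, 3228 in total, and kept only where the protein sequence was available. Binding is expressed as a within-array Z-score. This score was averaged across arrays of the same protein sequence at different concentrations or buffers and across linkers, and negative values can be read as non-binding.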
# [2] = target: Neu5Ac(a2-3)Gal(b1-4)GlcNAc(b1-6)[Neu5Ac(a2-3)Gal(b1-3)]GalNAc
# Summary of the method: as §1
# [3] = target: Neu5Ac(a2-3)Gal(b1-4)GlcNAc6S
# Summary of the method: as §1
# [4] = target: Neu5Ac(a2-3)Gal(b1-4)[Fuc(a1-3)]GlcNAc
# Summary of the method: as §1
# [5] = target: Neu5Ac(a2-3)Gal(b1-4)[Fuc(a1-3)]GlcNAc(b1-2)Man
# Summary of the method: as §1
# [6] = target: Neu5Ac(a2-3)Gal(b1-4)[Fuc(a1-3)]GlcNAc(b1-3)Gal
# Summary of the method: as §1
# [7] = target: Neu5Ac(a2-3)Gal(b1-4)[Fuc(a1-3)]GlcNAc(b1-3)Gal(b1-4)GlcNAc
# Summary of the method: as §1
# [8] = target: Neu5Ac(a2-3)Gal(b1-4)[Fuc(a1-3)]GlcNAc(b1-3)Gal(b1-4)[Fuc(a1-3)]GlcNAc(b1-3)Gal(b1-4)[Fuc(a1-3)]GlcNAc
# Summary of the method: as §1
# [9] = target: Neu5Ac(a2-3)Gal(b1-4)[Fuc(a1-3)]GlcNAc(b1-3)GalNAc
# Summary of the method: as §1
# [10] = target: Neu5Ac(a2-3)Gal(b1-4)[Fuc(a1-3)]GlcNAc(b1-6)[Gal(b1-3)]GalNAc
# Summary of the method: as §1
# [11] = target: Neu5Ac(a2-3)Gal(b1-4)[Fuc(a1-3)]GlcNAc(b1-6)[Neu5Ac(a2-3)Gal(b1-3)]GalNAc
# Summary of the method: as §1
# [12] = target: Neu5Ac(a2-3)Gal(b1-4)[Fuc(a1-3)]GlcNAc6S
# Summary of the method: as §1
# [13] = target: Neu5Ac(a2-3)Gal6S(b1-4)GlcNAc
# Summary of the method: as §1
# [14] = target: Neu5Ac(a2-3)Gal6S(b1-4)[Fuc(a1-3)]GlcNAc
# Summary of the method: as §1
# [15] = target: Neu5Ac(a2-3)GalNAc
# Summary of the method: as §1
# [16] = target: Neu5Ac(a2-3)GalNAc(b1-4)GlcNAc
# Summary of the method: as §1
# [17] = target: Neu5Ac(a2-3)[GalNAc(b1-4)]Gal(b1-4)Glc
# Summary of the method: as §1
# [18] = target: Neu5Ac(a2-3)[GalNAc(b1-4)]Gal(b1-4)GlcNAc
# Summary of the method: as §1
# [19] = target: Neu5Ac(a2-3)[GalNAc(b1-4)]Gal(b1-4)GlcNAc(b1-3)GalNAc
# Summary of the method: as §1
# [20] = target: Neu5Ac(a2-3)[Neu5Ac(a2-6)]GalNAc
# Summary of the method: as §1
# [21] = target: Neu5Ac(a2-6)Gal
# Summary of the method: as §1
# [22] = target: Neu5Ac(a2-6)Gal(b1-3)GlcNAc(b1-3)[Gal(b1-4)GlcNAc(b1-6)]Gal(b1-4)Glc
# Summary of the method: as §1
# [23] = target: Neu5Ac(a2-6)Gal(b1-4)Glc
# Summary of the method: as §1
# [24] = target: Neu5Ac(a2-6)Gal(b1-4)GlcNAc
# Summary of the method: as §1
# [25] = target: Neu5Ac(a2-6)Gal(b1-4)GlcNAc(b1-2)Man
# Summary of the method: as §1
# [26] = target: Neu5Ac(a2-6)Gal(b1-4)GlcNAc(b1-2)Man(a1-3)Man(b1-4)GlcNAc(b1-4)GlcNAc
# Summary of the method: as §1
# [27] = target: Neu5Ac(a2-6)Gal(b1-4)GlcNAc(b1-2)Man(a1-3)[Gal(b1-4)GlcNAc(b1-2)Man(a1-6)]Man(b1-4)GlcNAc(b1-4)GlcNAc
# Summary of the method: as §1
# [28] = target: Neu5Ac(a2-6)Gal(b1-4)GlcNAc(b1-2)Man(a1-3)[GlcNAc(b1-2)Man(a1-6)]Man(b1-4)GlcNAc(b1-4)GlcNAc
# Summary of the method: as §1
# [29] = target: Neu5Ac(a2-6)Gal(b1-4)GlcNAc(b1-2)Man(a1-3)[GlcNAc(b1-2)Man(b1-4)GlcNAc(b1-2)Man(a1-6)]Man(b1-4)GlcNAc(b1-4)GlcNAc
# Summary of the method: as §1
# [30] = target: Neu5Ac(a2-6)Gal(b1-4)GlcNAc(b1-2)Man(a1-3)[GlcNAc(b1-4)][Neu5Ac(a2-6)Gal(b1-4)GlcNAc(b1-2)Man(a1-6)]Man(b1-4)GlcNAc(b1-4)GlcNAc
# Summary of the method: as §1
# [31] = target: Neu5Ac(a2-6)Gal(b1-4)GlcNAc(b1-2)Man(a1-3)[Man(a1-6)]Man(b1-4)GlcNAc(b1-4)GlcNAc
# Summary of the method: as §1
# [32] = target: Neu5Ac(a2-6)Gal(b1-4)GlcNAc(b1-2)Man(a1-3)[Neu5Ac(a2-3)Gal(b1-4)GlcNAc(b1-2)Man(a1-6)]Man(b1-4)GlcNAc(b1-4)GlcNAc
# Summary of the method: as §1
# [33] = target: Neu5Ac(a2-6)Gal(b1-4)GlcNAc(b1-2)Man(a1-3)[Neu5Ac(a2-6)Gal(b1-4)GlcNAc(b1-2)Man(a1-6)]Man(b1-4)GlcNAc(b1-4)GlcNAc
# Summary of the method: as §1
# [34] = target: Neu5Ac(a2-6)Gal(b1-4)GlcNAc(b1-2)Man(a1-3)[Neu5Ac(a2-6)Gal(b1-4)GlcNAc(b1-2)Man(a1-6)]Man(b1-4)GlcNAc(b1-4)[Fuc(a1-6)]GlcNAc
# Summary of the method: as §1
# [35] = target: Neu5Ac(a2-6)Gal(b1-4)GlcNAc(b1-2)Man(a1-6)Man(b1-4)GlcNAc(b1-4)GlcNAc
# Summary of the method: as §1
# [36] = target: Neu5Ac(a2-6)Gal(b1-4)GlcNAc(b1-2)Man(a1-6)[Gal(b1-4)GlcNAc(b1-2)Man(a1-3)]Man(b1-4)GlcNAc(b1-4)GlcNAc
# Summary of the method: as §1
# [37] = target: Neu5Ac(a2-6)Gal(b1-4)GlcNAc(b1-2)Man(a1-6)[GlcNAc(b1-2)Man(a1-3)]Man(b1-4)GlcNAc(b1-4)GlcNAc
# Summary of the method: as §1
# [38] = target: Neu5Ac(a2-6)Gal(b1-4)GlcNAc(b1-2)Man(a1-6)[Man(a1-3)]Man(b1-4)GlcNAc(b1-4)GlcNAc
# Summary of the method: as §1
# [39] = target: Neu5Ac(a2-6)Gal(b1-4)GlcNAc(b1-2)[Neu5Ac(a2-6)Gal(b1-4)GlcNAc(b1-4)]Man(a1-3)[GlcNAc(b1-4)][Neu5Ac(a2-6)Gal(b1-4)GlcNAc(b1-2)[Neu5Ac(a2-6)Gal(b1-4)GlcNAc(b1-6)]Man(a1-6)]Man(b1-4)GlcNAc(b1-4)GlcNAc
# Summary of the method: as §1
# [40] = target: Neu5Ac(a2-6)Gal(b1-4)GlcNAc(b1-2)[Neu5Ac(a2-6)Gal(b1-4)GlcNAc(b1-4)]Man(a1-3)[GlcNAc(b1-4)][Neu5Ac(a2-6)Gal(b1-4)GlcNAc(b1-4)Man(a1-6)]Man(b1-4)GlcNAc(b1-4)GlcNAc
# Summary of the method: as §1
# [41] = target: Neu5Ac(a2-6)Gal(b1-4)GlcNAc(b1-2)[Neu5Ac(a2-6)Gal(b1-4)GlcNAc(b1-6)]Man(a1-6)[Neu5Ac(a2-6)Gal(b1-4)GlcNAc(b1-2)Man(a1-3)][GlcNAc(b1-4)]Man(b1-4)GlcNAc(b1-4)GlcNAc
# Summary of the method: as §1
# [42] = target: Neu5Ac(a2-6)Gal(b1-4)GlcNAc(b1-3)Gal(b1-3)GlcNAc
# Summary of the method: as §1
# [43] = target: Neu5Ac(a2-6)Gal(b1-4)GlcNAc(b1-3)Gal(b1-4)GlcNAc
# Summary of the method: as §1
# [44] = target: Neu5Ac(a2-6)Gal(b1-4)GlcNAc(b1-3)Gal(b1-4)GlcNAc(b1-2)Man(a1-3)[Neu5Ac(a2-6)Gal(b1-4)GlcNAc(b1-3)Gal(b1-4)GlcNAc(b1-2)Man(a1-6)]GalNAc
# Summary of the method: as §1
# [45] = target: Neu5Ac(a2-6)Gal(b1-4)GlcNAc(b1-3)Gal(b1-4)GlcNAc(b1-3)Gal(b1-4)GlcNAc
# Summary of the method: as §1
# [46] = target: Neu5Ac(a2-6)Gal(b1-4)GlcNAc(b1-3)Gal(b1-4)GlcNAc(b1-3)Gal(b1-4)GlcNAc(b1-2)Man(a1-3)[Neu5Ac(a2-6)Gal(b1-4)GlcNAc(b1-3)Gal(b1-4)GlcNAc(b1-3)Gal(b1-4)GlcNAc(b1-2)Man(a1-6)]GalNAc
# Summary of the method: as §1
binder,measurement,setting,value
B1,glycan array binding signal (z-score),[1],-0.219
same,glycan array binding signal (z-score),[2],-0.152
same,glycan array binding signal (z-score),[3],-0.064
same,glycan array binding signal (z-score),[4],-0.171
same,glycan array binding signal (z-score),[5],-0.166
same,glycan array binding signal (z-score),[6],-0.143
same,glycan array binding signal (z-score),[7],-0.183
same,glycan array binding signal (z-score),[8],-0.235
same,glycan array binding signal (z-score),[9],-0.151
same,glycan array binding signal (z-score),[10],-0.103
same,glycan array binding signal (z-score),[11],-0.181
same,glycan array binding signal (z-score),[12],-0.124
same,glycan array binding signal (z-score),[13],-0.126
same,glycan array binding signal (z-score),[14],-0.07
same,glycan array binding signal (z-score),[15],-0.207
same,glycan array binding signal (z-score),[16],-0.161
same,glycan array binding signal (z-score),[17],-0.104
same,glycan array binding signal (z-score),[18],-0.088
same,glycan array binding signal (z-score),[19],-0.073
same,glycan array binding signal (z-score),[20],-0.164
same,glycan array binding signal (z-score),[21],-0.126
same,glycan array binding signal (z-score),[22],-0.168
same,glycan array binding signal (z-score),[23],-0.124
same,glycan array binding signal (z-score),[24],-0.159
same,glycan array binding signal (z-score),[25],-0.164
same,glycan array binding signal (z-score),[26],-0.17
same,glycan array binding signal (z-score),[27],-0.215
same,glycan array binding signal (z-score),[28],-0.172
same,glycan array binding signal (z-score),[29],-0.372
same,glycan array binding signal (z-score),[30],-0.182
same,glycan array binding signal (z-score),[31],-0.097
same,glycan array binding signal (z-score),[32],-0.156
same,glycan array binding signal (z-score),[33],-0.114
same,glycan array binding signal (z-score),[34],-0.157
same,glycan array binding signal (z-score),[35],-0.208
same,glycan array binding signal (z-score),[36],-0.129
same,glycan array binding signal (z-score),[37],0.002
same,glycan array binding signal (z-score),[38],1.79
same,glycan array binding signal (z-score),[39],-0.176
same,glycan array binding signal (z-score),[40],-0.167
same,glycan array binding signal (z-score),[41],-0.148
same,glycan array binding signal (z-score),[42],-0.194
same,glycan array binding signal (z-score),[43],-0.2
same,glycan array binding signal (z-score),[44],-0.083
same,glycan array binding signal (z-score),[45],-0.169
same,glycan array binding signal (z-score),[46],-0.029
